Our source for the IC50 values is patent US11420968B2 (priority 2018, dated 2022).

One assay deals with RS4;11 cells. Put plainly: cells. To be noted: Homo sapiens.
The next assay relates to Molt-4 cells. The assay can be described thus: cells. Particulars: Homo sapiens.
The mark [1] stands for this setting: RS4-11, 48 h, read-out: Cellular activity (IC50, nM) RS4, 11.
Setting [2] is: MOLT-4, read-out: Cellular activity (IC50, nM) Molt-4.
[3] abbreviates: RS4-11, 48 h, read-out: Cellular activity (IC50, nM) RS4;11.
[4] abbreviates: RS4-11, read-out: Celluclar activity (IC50, nM) RS 4, 11.
Where [5] appears, read: MOLT-4, read-out: Celluclar activity (IC50, nM) Molt-4.

Where two headings read alike, the source gives them in different places.

For orientation: IC50 means the concentration that inhibits the measured activity by half. As for `O=C(NS(=O)(=O)c1ccc(NCC2CCOCC2)c([N+](=O)[O-])c1)c1ccc(C2=CCC(N3CC=CC3c3ccccc3C3CC3)CC2)cc1Oc1cnc2[nH]ccc2c1` (centres unmarked) [Example C81, 3-((1H-pyrrolo[2,3-b]pyridin-5-yl)oxy)-4′-(2-(2-cyclopropylphenyl)-2,5-dihydro-1H-pyrrol-1-yl)-N-((3-nitro-4-(((tetrahydro-2H-pyran-4-yl)methyl)amino)phenyl)sulfonyl)-2′,3′,4′,5′-tetrahydro-[1,1′-biphenyl]-4-carboxamide], the IC50 in the assay on RS4;11 cells (setting [1]) is 410 nM; in the assay on Molt-4 cells (setting [2]) it was above 10000 nM.
For the compound `COC(c1ccccc1C1CC1)C1CCCN1C1CC=C(c2ccc(C(=O)NS(=O)(=O)c3ccc(NCC4CCOCC4)c([N+](=O)[O-])c3)c(Oc3cnc4[nH]ccc4c3)c2)CC1` (centres unmarked) [Example C183, 3-((1H-pyrrolo[2,3-b]pyridin-5-yl)oxy)-4′-(2-((2-cyclopropylphenyl)(methoxy)methyl)pyrrolidin-1-yl)-N-((3-nitro-4-(((tetrahydro-2H-pyran-4-yl)methyl)amino)phenyl)sulfonyl)-2′,3′,4′,5′-tetrahydro-[1,1′-biphenyl]-4-carboxamide], the IC50 is 187 nM in the assay with RS4;11 cells (setting [1]) and above 10000 nM in the assay with Molt-4 cells (setting [2]).
On to `CC1CC(c2ccccc2C2CC2)N(C2CC3(CCN(c4ccc(C(=O)NS(=O)(=O)c5ccc(NCC6CCOCC6)c([N+](=O)[O-])c5)c(Oc5cnc6[nH]ccc6c5)c4)CC3)C2)C1` (centres unmarked) [Example F78, 2-((1H-pyrrolo[2,3-b]pyridin-5-yl)oxy)-4-(2-(2-(2-cyclopropylphenyl)-4-methylpyrrolidin-1-yl)-7-azaspiro[3.5]nonan-7-yl)-N-((3-nitro-4-(((tetrahydro-2H-pyran-4-yl)methyl)amino)phenyl)sulfonyl)benzamide], for which the IC50 with RS4;11 cells (setting [3]) was determined as 1.5 nM; in the assay on Molt-4 cells (setting [2]), 3570 nM.
With `O=C(NS(=O)(=O)c1ccc(NCC2CCOCC2)c([N+](=O)[O-])c1)c1ccc(C2=CCC(N3CCCC3c3ccc(C4CC4)cc3)CC2)cc1Oc1cnc2[nH]ccc2c1` (centres unmarked) [Example C192, 3-((1H-pyrrolo[2,3-b]pyridin-5-yl)oxy)-4′-(2-(4-cyclopropylphenyl)pyrrolidin-1-yl)-N-((3-nitro-4-(((tetrahydro-2H-pyran-4-yl)methyl)amino)phenyl)sulfonyl)-2′,3′,4′,5′-tetrahydro-[1,1′-biphenyl]-4-carboxamide], the IC50 came to 57 nM in the assay with RS4;11 cells (setting [1]) and 6830 nM in the assay with Molt-4 cells (setting [2]).
With `CN(C)C1CC(c2ccccc2C2CC2)N(C2CC3(CCN(c4ccc(C(=O)NS(=O)(=O)c5ccc(NCC6CCOCC6)c([N+](=O)[O-])c5)c(Oc5cnc6[nH]ccc6c5)c4)CC3)C2)C1` (centres unmarked) [Example F85, 2-((1H-pyrrolo[2,3-b]pyridin-5-yl)oxy)-4-(2-(2-(2-cyclopropylphenyl)-4-(dimethylamino)pyrrolidin-1-yl)-7-azaspiro[3.5]nonan-7-yl)-N-((3-nitro-4-(((tetrahydro-2H-pyran-4-yl)methyl)amino)phenyl)sulfonyl)benzamide], the IC50 amounted to 3.5 nM with RS4;11 cells (setting [3]) and 3510 nM in the assay with Molt-4 cells (setting [2]).
Take `Cn1cc2cccc(C3CCCN3c3ccc(-c4ccc(C(=O)NS(=O)(=O)c5ccc(NCC6CCOCC6)c([N+](=O)[O-])c5)c(Oc5cnc6[nH]ccc6c5)c4)cc3)c2n1` (centres unmarked) [Example A142, 3-((1H-pyrrolo[2,3-b]pyridin-5-yl)oxy)-4′-(2-(2-methyl-2H-indazol-7-yl)pyrrolidin-1-yl)-N-((3-nitro-4-(((tetrahydro-2H-pyran-4-yl)methyl)amino)phenyl)sulfonyl)-[1,1′-biphenyl]-4-carboxamide]: the IC50 with RS4;11 cells (setting [3]) turned out to be 108 nM; in the assay on Molt-4 cells (setting [2]), 2510 nM.
`CN(CC1CCCN1C)c1ccccc1C1CCCN1c1ccc(-c2ccc(C(=O)NS(=O)(=O)c3ccc(NCC4CCOCC4)c([N+](=O)[O-])c3)c(Oc3cnc4[nH]ccc4c3)c2)cc1` (centres unmarked) [Example A135, 3-((1H-pyrrolo[2,3-b]pyridin-5-yl)oxy)-4′-(2-(2-(methyl((1-methylpyrrolidin-2-yl)methyl)amino)phenyl)pyrrolidin-1-yl)-N-((3-nitro-4-(((tetrahydro-2H-pyran-4-yl)methyl)amino)phenyl)sulfonyl)-[1,1′-biphenyl]-4-carboxamide]: the IC50 was found to be 12 nM in the assay with RS4;11 cells (setting [3]) and 751 nM with Molt-4 cells (setting [2]).
For `CN(c1ccc(C(=O)NS(=O)(=O)c2ccc(NCC3CCOCC3)c([N+](=O)[O-])c2)c(Oc2cnc3[nH]ccc3c2)c1)C1CCC(N2CCCC2c2ccccc2C2CC2)CC1` (stereo not drawn) [Example F11, (trans- or cis-) 2-((1H-pyrrolo[2,3-b]pyridin-5-yl)oxy)-4-((4-(2-(2-cyclopropylphenyl)pyrrolidin-lyI)cyclohexyl)(methyl)amino)-N-((3-nitro-4-(((tetrahydro-2H-pyran-4-yl)methyl)amino)phenyl)sulfonyl)benzamide], the results for the IC50 in the assay with RS4;11 cells (setting [1]) and in the assay with Molt-4 cells (setting [2]) were 329 nM and above 10000 nM, respectively.
On to `O=C(NS(=O)(=O)c1ccc(NCCN2CCOCC2)c([N+](=O)[O-])c1)c1ccc(N2CCC3(CC2)CC(N2CCC[C@H]2c2ccccc2C2CC2)C3)cc1Oc1cnc2[nH]ccc2c1` [Example F117, (S)-2-((1H-pyrrolo[2,3-b]pyridin-5-yl)oxy)-4-(2-(2-(2-cyclopropylphenyl)pyrrolidin-1-yl)-7-azaspiro[3.5]nonan-7-yl)-N-((4-((2-morpholinoethyl)amino)-3-nitrophenyl)sulfonyl)benzamide], for which the IC50 came out at 6.5 nM in the assay with RS4;11 cells (setting [3]) and 1460 nM with Molt-4 cells (setting [2]).
`CN1CC=C(c2ccccc2[C@H]2CCCN2c2ccc(-c3ccc(C(=O)NS(=O)(=O)c4ccc(NC[C@H]5CC[C@](C)(O)CC5)c([N+](=O)[O-])c4)c(Oc4cnc5[nH]ccc5c4)c3)cc2)CC1` [Example G118, 3-((1H-pyrrolo[2,3-b]pyridin-5-yl)oxy)-N-((4-((((1r,4r)-4-hydroxy-4-methylcyclohexyl)methyl)amino)-3-nitrophenyl)sulfonyl)-4′-((R)-2-(2-(1-methyl-1,2,3,6-tetrahydropyridin-4-yl)phenyl)pyrrolidin-1-yl)-[1,1′-biphenyl]-4-carboxamide]: the IC50 in the assay on RS4;11 cells (setting [3]) is 2.8 nM; with RS4;11 cells (setting [4]), 2.8 nM; in the assay with Molt-4 cells (setting [5]), above 10000 nM; with Molt-4 cells (setting [2]), above 10000 nM.
Take `CCc1ccccc1[C@H]1CCCN1c1ccc(-c2ccc(C(=O)NS(=O)(=O)c3ccc(OCC4(F)CCN(C5COC5)CC4)c([N+](=O)[O-])c3)c(Oc3cnc4[nH]ccc4c3)c2)cc1` [Example G104, (R)-3-((1H-pyrrolo[2,3-b]pyridin-5-yl)oxy)-4′-(2-(2-ethylphenyl)pyrrolidin-1-yl)-N-((4-((4-fluoro-1-(oxetan-3-yl)piperidin-4-yl)methoxy)-3-nitrophenyl)sulfonyl)-[1,1′-biphenyl]-4-carboxamide]: the IC50 in the assay with RS4;11 cells (setting [1]) came to 11 nM; in the assay with Molt-4 cells (setting [2]), 1310 nM.
Consider `CN(C)CCc1ccccc1C1CCCN1c1ccc(-c2ccc(C(=O)NS(=O)(=O)c3ccc(NCC4CCOCC4)c([N+](=O)[O-])c3)c(Oc3cnc4[nH]ccc4c3)c2)cc1` (centres unmarked) [Example A130, 3-((1H-pyrrolo[2,3-b]pyridin-5-yl)oxy)-4′-(2-(2-(2-(dimethylamino)ethyl)phenyl)pyrrolidin-1-yl)-N-((3-nitro-4-(((tetrahydro-2H-pyran-4-yl)methyl)amino)phenyl)sulfonyl)-[1,1′-biphenyl]-4-carboxamide], for which the IC50 in the assay on RS4;11 cells (setting [3]) was 31 nM; in the assay with Molt-4 cells (setting [2]), above 10000 nM.
`CC1(C)CCN(C2CC3(CCN(c4ccc(C(=O)NS(=O)(=O)c5ccc(NCC6CCOCC6)c([N+](=O)[O-])c5)c(Oc5cnc6[nH]ccc6c5)c4)CC3)C2)C1c1ccccc1C1CC1` (centres unmarked) [Example F89, 2-((1H-pyrrolo[2,3-b]pyridin-5-yl)oxy)-4-(2-(2-(2-cyclopropylphenyl)-3,3-dimethylpyrrolidin-1-yl)-7-azaspiro[3.5]nonan-7-yl)-N-((3-nitro-4-(((tetrahydro-2H-pyran-4-yl)methyl)amino)phenyl)sulfonyl)benzamide]: the values for the IC50 in the assay on RS4;11 cells (setting [3]) and with Molt-4 cells (setting [2]) were 27 nM and 4010 nM, respectively.
In the case of `O=C(NS(=O)(=O)c1ccc(NCC2(F)CCN(C3COC3)CC2)c([N+](=O)[O-])c1)c1ccc(C2=CCC(N3CCC[C@H]3c3ccccc3C3CC3)CC2)cc1Oc1cnc2[nH]ccc2c1` (stereo partly drawn) [Example G114, 3-((1H-pyrrolo[2,3-b]pyridin-5-yl)oxy)-4′-((S)-2-(2-cyclopropylphenyl)pyrrolidin-1-yl)-N-((4-(((4-fluoro-1-(oxetan-3-yl)piperidin-4-yl)methyl)amino)-3-nitrophenyl)sulfonyl)-2′,3′,4′,5′-tetrahydro-[1,1′-biphenyl]-4-carboxamide], the figures for the IC50 with RS4;11 cells (setting [1]) and with Molt-4 cells (setting [2]) were 18 nM and 5970 nM, respectively.
Consider `O=C(NS(=O)(=O)c1ccc(NCC2(F)CCC(O)CC2)c([N+](=O)[O-])c1)c1ccc(C2=CCC(N3CCC[C@H]3c3ccccc3C3CC3)CC2)cc1Oc1cnc2[nH]ccc2c1` (some centres unmarked) [Example G109], for which the IC50 in the assay on RS4;11 cells (setting [1]) is 24 nM; in the assay on Molt-4 cells (setting [2]), above 10000 nM.
As for `CN1CC=C(c2ccccc2[C@H]2CCCN2c2ccc(-c3ccc(C(=O)NS(=O)(=O)c4ccc(NC[C@@H]5COCCO5)c([N+](=O)[O-])c4)c(Oc4cnc5[nH]ccc5c4)c3)cc2)CC1` [Example G120, N-((4-((((R)-1,4-dioxan-2-yl)methyl)amino)-3-nitrophenyl)sulfonyl)-3-((1H-pyrrolo[2,3-b]pyridin-5-yl)oxy)-4′-((R)-2-(2-(1-methyl-1,2,3,6-tetrahydropyridin-4-yl)phenyl)pyrrolidin-1-yl)-[1,1′-biphenyl]-4-carboxamide], the IC50 was 9 nM with RS4;11 cells (setting [3]) and above 10000 nM in the assay with Molt-4 cells (setting [2]).
For the compound `C=C(C)c1ccccc1[C@@H]1CCCN1C1CC2(CCN(c3ccc(C(=O)NS(=O)(=O)c4ccc(NC[C@H]5CC[C@](C)(O)CC5)c([N+](=O)[O-])c4)c(Oc4cnc5[nH]ccc5c4)c3)CC2)C1` [Example F104, 2-((1H-pyrrolo[2,3-b]pyridin-5-yl)oxy)-N-((4-((((1r,4r)-4-hydroxy-4-methylcyclohexyl)methyl)amino)-3-nitrophenyl)sulfonyl)-4-(2-((S)-2-(2-(prop-1-en-2-yl)phenyl)pyrrolidin-1-yl)-7-azaspiro[3.5]nonan-7-yl)benzamide], the IC50 came out at 0.4 nM in the assay on RS4;11 cells (setting [3]), 0.4 nM in the assay with RS4;11 cells (setting [4]), 1490 nM in the assay with Molt-4 cells (setting [5]) and 1490 nM in the assay on Molt-4 cells (setting [2]).
